Measured values as given in US20180318300A1, “TREATMENT OF AUTOIMMUNE DISEASE” (MingSight Pharmaceuticals, Inc., priority 2015, published 2018).
Like-named read-outs stand apart in the source and are kept apart here.

Test system: type II collagen arthritis in mice
Settings: BID; for Change in Body Weight from Day 17 (g): Days 18-35; for Change in Body Weight from Day 17 (g) / Paw Score AUC: mean (SE); for Paw Score AUC: AUC Study Days 18-35; for Percent Incidence: disease incidence at study termination

SMILES | Change in Body Weight from Day 17 (g) (0.1 mg/kg PO) | Paw Score AUC (0.1 mg/kg PO) | Percent Incidence (0.1 mg/kg PO) [%] | Percent Incidence (0.1 mg/kg PO, listed as Dex) [%] | Reduction of arthritis scores expressed as area under the curve (AUC) compared to Vehicle Controls (Dex 0.1 mg/kg PO) [%] | Change in Body Weight from Day 17 (g) (60 mg/kg PO) | Paw Score AUC (60 mg/kg PO) | Percent Incidence (60 mg/kg PO) [%] | Change in Body Weight from Day 17 (g) (90 mg/kg PO) | Paw Score AUC (90 mg/kg PO) | Percent Incidence (90 mg/kg PO) [%] | Reduction of arthritis scores expressed as area under the curve (AUC) compared to Vehicle Controls (120 mg/kg PO) [%] | Change in Body Weight from Day 17 (g) (120 mg/kg PO) | Paw Score AUC (120 mg/kg PO) | Disease-induced body weight loss (percent change from baseline) compared to Vehicle Controls (120 mg/kg PO, Days 20 and 34) | Percent Incidence (120 mg/kg PO) [%] | Clinical arthritis scores measured daily compared to Vehicle Controls (120 mg/kg PO, p<0.05 on Days 27-35)
C[C@@H]1C[C@H]2[C@@H]3CCC4=CC(=O)C=C[C@]4(C)[C@@]3(F)[C@@H](O)C[C@]2(C)[C@@]1(O)C(=O)CO [Dexamethasone, reference compound] | −2.44 (0.68) g | *0.00 (0.00) | 0 | 0 | 100 | – | – | – | – | – | – | – | – | – | – | – | –
Cc1ncc(F)c(Nc2n[nH]c3c2CN(C(=O)N2C[C@@H](C)N(CC4CCOCC4)C[C@@H]2C)C3(C)C)n1 [compound A, 5-{[(2S,5R)-2,5-dimethyl-4-(tetrahydro-2H-pyran-4-ylmethyl)piperazin-1-yl]carbonyl}-N-(5-fluoro-2-methylpyrimidin-4-yl)-6,6-dimethyl-1,4,5,6-tetrahydropyrrolo[3,4-c]pyrazol-3-amine] | – | – | – | – | – | −1.55 (0.48) g | 22.91 (2.82) | 100 | −0.86 (0.52) g | 9.85 (2.37) | 92 | 72 | −0.25 (0.26) g | *5.74 (1.41) | inhibited | 83 | reduced toward normal
